Assay results: the supplement of paper PMC8512760
This is one part of the list. Single values are uncertain, as repeats are few or missing.

How the values were obtained:
Assay in all cases: cell viability relative to vehicle (% of vehicle); basal-like triple-negative breast cancer lines; higher = less cytotoxic
Settings in all cases: 10 µM; 72 h
HCC-1143 = tested on: HCC-1143
HCC-1187 = tested on: HCC-1187
MDA-468 = tested on: MDA-468
SUM-149 = tested on: SUM-149
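Further: stably firefly luciferase-GFP labeled cells in 96-well plates, viability read as luciferase photon flux after d-luciferin addition, treated wells normalized to vehicle wells, single-dose high-throughput screen.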

Compound | cell viability (HCC-1143) | cell viability (HCC-1187) | cell viability (MDA-468) | cell viability (SUM-149)
CC(C)c1c(C(=O)Nc2ccccc2)c(-c2ccccc2)c(-c2ccc(F)cc2)n1CCC(O)CC(O)CC(=O)[O-].CC(C)c1c(C(=O)Nc2ccccc2)c(-c2ccccc2)c(-c2ccc(F)cc2)n1CCC(O)CC(O)CC(=O)[O-].[Ca+2] (stereo unspecified) [Atorvastatin Calcium] | 79.6 | 41.5 | 32.7 | 71.6
CC(C)(C)c1ccc(C(=O)CCCN2CCC(OC(c3ccccc3)c3ccccc3)CC2)cc1 [Ebastine] | 70.9 | 93.7 | 102 | 77.5
NS(=O)(=O)c1cc2c(cc1Cl)NC=NS2(=O)=O [Chlorothiazide] | 88.7 | 113 | 113 | 123
Clc1ccc2c(c1)C(N1CCNCC1)=Nc1ccccc1O2 [Amoxapine] | 78.9 | 80.9 | 112 | 92.9
COc1cc(CNC(=O)CCCCC=CC(C)C)ccc1O [Capsaicin] | 88.6 | 104 | 83.8 | 113
O=C1C(CCC(O)c2ccc(F)cc2)C(c2ccc(O)cc2)N1c1ccc(F)cc1 (stereo unspecified) [Ezetimibe] | 77.3 | 75.4 | 103 | 129
Cl.c1ccc(CC2=NCCN2)cc1 [Tolazoline HCl] | 73.9 | 86.5 | 124 | 104
Cc1nccn1CC1CCc2c(c3ccccc3n2C)C1=O.Cl.O.O (stereo unspecified) [Ondansetron hydrochloride dihydrate] | 83.1 | 74.6 | 119 | 129
C#CC1(O)CCC2C3CCC4=CC(=O)CCC4C3CCC21C (stereo unspecified) [Norethindrone] | 78 | 111 | 126 | 116
